Experimental data: PubChem BioAssay AID463173 (ICCB-Longwood Screening Facility, Harvard Medical School, 2010)
The campaign covered roughly 52,000 compounds. About 1,700 (3.3%) were called active. Rule as the data show it: active = survival mostly below about 52% (no sharp cut-off); inactive = mostly above about 56%. The list shows a part of the results.

Test system: Wild type
Experiment: S. aureus survival, RN4220 and DeltatarO strains – OD600, teichoic acid synthesis inhibitors, primary screen (AID 463173)
Conditions: S. aureus RN4220 wild type/DeltatarO growth, OD600, 18 h, active compounds read low, screened at 18.75 µg/mL (by protocol)

Question: For `Cc1ccc(C)c(Cn2nc(C)n3c(cc4cc(C)ccc43)c2=O)c1`, which survival is on record?
Answer: inactive: 79%

Question: With `COC(=O)c1ccc(OCC2c3cc(OC)c(OC)cc3CCN2C(=O)c2ccccc2F)cc1` (configuration not stated) as the compound, how does the survival read?
Answer: inactive: 75%

Question: Which survival does the source give for `O=C(CSCc1cnn(-c2ccccc2)c1-n1cccc1)Nc1ccc(F)cc1F` here?
Answer: inactive: 87%

Question: `CCc1ccc(NC(=O)c2cc3c(=O)n(Cc4cccnc4)ccc3nc2C)cc1` was tested. Which survival did it give?
Answer: inactive: 95%

Question: How did the survival turn out when `Cc1cccc(C(=O)Nc2cccc(OCc3cc(=O)n4c(C)csc4n3)c2)c1` was run?
Answer: inactive: 79%

Question: Which survival does the source give for `COC(=O)c1ccc(Cl)c(NC(=O)C2CCN(S(=O)(=O)Cc3ccccc3)CC2)c1` here?
Answer: inactive: 119%

Question: `CCc1ccc(NC(=O)C(=O)NCC(c2cccnc2)N2CCOCC2)cc1` (configuration not stated) was tested. Which survival did it give?
Answer: inactive: 84%

Question: Which survival does the source give for `CCOC(=O)c1c(-c2cccs2)csc1NC(=O)c1ccccc1` here?
Answer: inactive: 113%

Question: With `COc1ccc(Nc2nc(N)nc(CSc3nc4cc(OC)ccc4s3)n2)cc1` as the compound, how does the survival read?
Answer: active: 8%

Question: For `COc1ccc(NC(=O)Cc2csc(COc3cccc(C)c3)n2)c(OC)c1`, which survival is on record?
Answer: inactive: 90%

Question: How did the survival turn out when `CC(C)c1nn2c(=O)cc(COC(=O)CNC(=O)c3ccccc3)nc2s1` was run?
Answer: inactive: 152%

Question: How did the survival turn out when `COc1ccc(-c2noc(CCC(=O)NCc3ccc(OC)cc3OC)n2)cc1` was run?
Answer: inactive: 111%

Question: Which survival does the source give for `COc1ccc(OCC(=O)NCCS(=O)(=O)N2CCN(c3cccc(Cl)c3)CC2)cc1` here?
Answer: inactive: 58%

Question: `CCn1cc(C(=O)N(C)Cc2ccccc2)c(=O)c2cc(S(=O)(=O)N3CCCCCC3)ccc21` was tested. Which survival did it give?
Answer: inactive: 75%

Question: `CCCN(CCC)CC(O)Cn1cc(/C=C/C(=O)c2ccc(OCC)cc2)c2ccccc21` (configuration not stated) was tested. Which survival did it give?
Answer: active: 23%

Question: Which survival does the source give for `CCC(CC)C(=O)Nc1ccc2nc(SCC(=O)N3c4ccccc4CC3C)sc2c1` (configuration not stated) here?
Answer: inactive: 85%

Question: `CCOC(=O)c1c(C)sc(-c2c(-c3ccc(OC)c(F)c3)[nH]c3c2c(=O)[nH]c(=O)n3C)c1O` was tested. Which survival did it give?
Answer: inactive: 109%

Question: For `CC(C)Oc1ccc(CNC(=O)c2ccc3nc(Cc4ccccc4)oc3c2)cc1`, which survival is on record?
Answer: inactive: 73%

Question: `Cc1cc(C)cc(OCC(=O)N(Cc2ccc(C)o2)C2CCS(=O)(=O)C2)c1` (configuration not stated) was tested. Which survival did it give?
Answer: inactive: 86%

Question: For `Cc1ccc(-c2nn3c(=O)cc(CN4CCN(C(=O)Nc5cc(Cl)ccc5C)CC4)nc3s2)cc1`, which survival is on record?
Answer: inactive: 126%

Question: `COc1ccc(Cn2nnnc2CN2CCN(c3cc(Cl)ccc3C)CC2)cc1` was tested. Which survival did it give?
Answer: inactive: 112%

Question: Which survival does the source give for `COc1cc(OC)c(Nc2ncnc3onc(-c4cccc(Cl)c4)c23)cc1Cl` here?
Answer: inactive: 91%

Question: With `CCC(C)NC(=O)CSc1nc2cc3c(cc2c(=O)n1CCCC(=O)NCc1ccc2c(c1)OCO2)OCO3` (configuration not stated) as the compound, how does the survival read?
Answer: inactive: 71%

Question: `COc1ccc(Cl)cc1NC(=O)c1c(NCc2ccc(C)o2)sc2c1CCCC2` was tested. Which survival did it give?
Answer: inactive: 91%

Question: With `N#CC1=C(S)N(c2ccccc2)C2(CCCCC2)NC1=O` as the compound, how does the survival read?
Answer: inactive: 101%

Question: `COCCNC(=O)c1cc2c(Cl)nc3ccc(C)cc3c2s1` was tested. Which survival did it give?
Answer: inactive: 91%

Question: How did the survival turn out when `Cc1ccc(CN(Cc2ccco2)C(=O)c2oc3c(C)c(C)ccc3c2C)cc1` was run?
Answer: inactive: 85%

Question: With `COc1cccc(N(CC(=O)N2CCC(C)CC2)S(=O)(=O)c2ccc(C)cc2)c1` as the compound, how does the survival read?
Answer: inactive: 83%

Question: With `C=CCc1c(C)nc2nc(SCC(=O)Nc3ccc(OCC)cc3)nn2c1C` as the compound, how does the survival read?
Answer: inactive: 130%

Question: With `CCCCOc1ccc(C2=NC(c3ccccc3)=Nc3ccc(OC)cc3N2)cc1` as the compound, how does the survival read?
Answer: inactive: 81%

Question: `Cn1c(=O)c2c(-c3ccccc3Br)n(CCc3ccccc3)cc2n(C)c1=O` was tested. Which survival did it give?
Answer: inactive: 75%

Question: For `Clc1ccccc1Cc1cn2cc(-c3ccccc3)nc2s1`, which survival is on record?
Answer: inactive: 85%

Question: For `CCc1ccc(NC(=O)CSc2nnc(-c3cc4occc4n3C)n2-c2ccccc2C)cc1`, which survival is on record?
Answer: inactive: 87%

Question: Which survival does the source give for `Cc1cc(C)cc(NC(=O)C2(c3cccs3)CCOCC2)c1` here?
Answer: inactive: 72%

Question: Which survival does the source give for `COc1ccccc1CNC(=O)Cn1nc(C)c2nn(-c3ccc(Cl)cc3)c(C)c2c1=O` here?
Answer: inactive: 45%

Question: `CC(C)c1ccc(Nc2ncnc3c2c(-c2ccccc2)cn3-c2ccccc2)cc1` was tested. Which survival did it give?
Answer: inactive: 68%

Question: For `Clc1cccc(-n2ncc3c(N4CCN(Cc5ccccc5)CC4)ncnc32)c1`, which survival is on record?
Answer: inactive: 19%

Question: With `CCCOc1cccc(C(=O)NCc2cccnc2)c1` as the compound, how does the survival read?
Answer: inactive: 120%

Question: With `CC(C)COc1ccccc1C1CC(=O)Nc2cc3c(cc21)OCO3` (configuration not stated) as the compound, how does the survival read?
Answer: inactive: 104%

Question: `N#CC1=C(N)OC2=C(C(=O)CCC2)C12CCCC2` was tested. Which survival did it give?
Answer: inactive: 105%

Question: `COc1cccc(CNC(=O)Cn2ccc3cc(S(=O)(=O)N4CCC(C)CC4)ccc32)c1` was tested. Which survival did it give?
Answer: inactive: 75%

Question: For `Cc1ccc(-c2nc3cccnc3s2)cc1NC(=O)Cc1ccccc1`, which survival is on record?
Answer: inactive: 101%

Question: `COc1ccc(NC(=O)Cn2ccn(-c3ccccc3)c(=O)c2=O)cc1` was tested. Which survival did it give?
Answer: inactive: 83%

Question: `O=C(O)c1n[nH]c2c1CCCCC2` was tested. Which survival did it give?
Answer: inactive: 109%

Question: Which survival does the source give for `O=S(=O)(c1ccccc1)N1CCc2ccccc21` here?
Answer: inactive: 121%

Question: `O=C(Nc1ccc(Cl)cc1-c1nc2ccccc2s1)c1ccco1` was tested. Which survival did it give?
Answer: inactive: 98%

Question: Which survival does the source give for `Cc1ccc(-n2nc(C)c3c(C(=O)Nc4ccc(Br)c(C)c4)cc(C)nc32)cc1` here?
Answer: inactive: 78%

Question: Which survival does the source give for `O=C(CCn1[nH]c(=O)c2ccccc2c1=O)NCCO` here?
Answer: inactive: 95%

Question: Which survival does the source give for `COCCNC(=O)CSc1nc(-c2ccc(C)cc2)nc2c1c(=O)n(C)c(=O)n2C` here?
Answer: inactive: 77%

Question: Which survival does the source give for `COC(=O)C1=C(C)NC(=O)C1(NC(=O)c1ccccc1C)C(F)(F)F` (configuration not stated) here?
Answer: inactive: 89%

Question: For `COc1cccc(-c2nc(SCC(=O)N3CCc4ccccc43)c3c(=O)n(C)c(=O)n(C)c3n2)c1`, which survival is on record?
Answer: inactive: 135%

Question: Which survival does the source give for `CCOCCCn1c(=N)c(C(=O)NCC2CCCO2)cc2c(=O)n3cc(C)ccc3nc21` (configuration not stated) here?
Answer: inactive: 90%

Question: `COc1ccc(CCC(=O)NCc2ccc3c(c2)CCN3C(=O)c2ccc(C)cc2)cc1` was tested. Which survival did it give?
Answer: inactive: 70%

Question: How did the survival turn out when `CCOc1ccccc1CNC(=O)CN1C(=O)CCc2cc(S(=O)(=O)N3CCCCC3)ccc21` was run?
Answer: inactive: 113%

Question: Which survival does the source give for `Cc1cccc(OCC(=O)Nc2ccc3nc(Nc4cccc(Cl)c4)cc(C)c3c2)c1` here?
Answer: inactive: 82%

Question: How did the survival turn out when `CCOC(=O)c1c(-c2ccccc2)oc2ccc(NS(=O)(=O)c3ccc(C(C)C)cc3)cc12` was run?
Answer: inactive: 82%

Question: How did the survival turn out when `COc1ccccc1NC(=O)c1c(NC(=O)c2ccccc2Cl)sc2c1CCC2` was run?
Answer: inactive: 85%
